# Test results: the supplement of paper PMC10338343
# ± gives the standard deviation. Over roughly 6,600 sequences, “pre-steady-state target cleavage rate” has its median near 0.07; the highest 2% begin near 0.72. The list shows a part of the results, in another mix than the full data.
# System: MIWI (PIWIL1) piRISC loaded with Kctd7 piRNA (30 nt)
# Test: pre-steady-state target cleavage rate (min^-1); MIWI and MILI are mouse PIWI proteins and EfPiwi is from a freshwater sponge; tags in brackets are library labels; higher = faster piRNA-guided slicing of the target
# Conditions: guide: Kctd7 piRNA 5'p-UGUUAAUCUCUCAGAGAAGGUGACAGUGAU; auxiliary factor: 500 nM mouse GTSF1
# Experimental: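 Cleave-'n-Seq: a library of target RNAs (target site embedded in constant flanks, ACAGCATTCCGCGTTAGTGATATCCG... 5' flank; DNA-blocked outside the site) at 0.1 nM was incubated with 1 nM active mouse MILI or MIWI piRISC (synthetic 5'-monophosphorylated piRNA guide) with or without 500 nM mouse GTSF1 at 33 °C for 1 min to 16 h. Uncleaved targets were sequenced and normalised to non-target controls, and the pooled three trials were fitted to a burst-and-steady-state model to give the pre-steady-state cleavage rate (min^-1; k3 is constrained to at most 1e-4). Sequence is the target site only; target names encode pairing extent (gX:gY) and contiguous / 1-mismatch / 2-mismatch / bulge geometry. Fits with R² ≤ 0 are excluded.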
row,Sequence,pre-steady-state target cleavage rate
1,UAGACUGUCACCUUCUCUGAGAUAUUAACA,0.116 ± 0.012
2,UAGUGAGUCACCUUCUCUGACAGUUUAACA,0.0866 ± 0.016
3,UUGACUGUCACCUUCUCUGAGAGAUUAUCA,0.28 ± 0.031
4,UAGACUGUCACCAUCUCUGUGAGAUUAACA,0.155 ± 0.013
5,UAGUGUGUCACCUUCAGUGAGAGAUUAAGA,0.0142 ± 0.0059
6,UAGACUGUGACCUUCUCUGAGAGAUUAACA,0.696 ± 0.051
7,UUCACUGUCACCUUCUCUGAGUCAUUAACA,0.0116 ± 0.0029
8,UACACUGUCACCUUGUGUGAGAGAUUAACA,0.129 ± 0.017
9,UAGUGUGUCACCUUCUCUGAGAGAUUACACA,0.0925 ± 0.024
10,AUCAGUGUCACCUUCUGUGAGAGAUUAACA,0.601 ± 0.026
11,UAGUGUGUCACCUUCUCUGAAGAUUAACA,0.00856 ± 0.0039
12,AUCACUGUCACCUUCUCUCAGAGUUUAACA,0.0766 ± 0.0086
13,UAGACUGUCACCUUCUCUGUGAGAUUUACA,0.211 ± 0.026
14,UAGUGACUCACCUUCACUGAGAGAUUAUCA,0.298 ± 0.059
15,AUCACUGUCACCUUCUCUGAGAGAAUAAGA,0.152 ± 0.037
16,UAGUGACACACCUUCUCUGAGACAUUAACA,0.0884 ± 0.013
17,UACACUGUCUCCUUGUCUGAGAGAUUAACA,0.193 ± 0.032
18,UAGUGACUCACCAUCUCUGUGAGAUUAACA,0.0556 ± 0.0073
19,UAGUGAGUUCACCUUCUCUGAGAGAUUAACA,0.585 ± 0.027
20,UAGUGACUCACCUUCUCAGAGUGAUUAACA,0.00965 ± 0.0024
21,UAGUGACUCACCUUGUCUGAGAGAUUAUCA,0.0668 ± 0.024
22,AUUACUGUCACCUUCUCUGAGAGAUUAACA,0.713 ± 0.032
23,UACACUGUGACCUUCUCUGUGAGAUUAACA,0.208 ± 0.024
24,AUCACACUCACCUUCUCUGAGAGAUUUUGA,0.0908 ± 0.028

row,Sequence,pre-steady-state target cleavage rate
1,UAGACUGUCUCGUUCUCUGAGAGAUUAACA,0.626 ± 0.043
2,UUCACUGUCACCUUCUCUGUAGAGAUUAACA,0.114 ± 0.037
3,UAGUGACUCACCUUCACUGAGAGUUUAACA,0.145 ± 0.028
4,UAGACUCUCACCUUCUCUGACAGAUUAACA,0.566 ± 0.036
5,UUCACUGAGUCCUUCUCUGAGAGAUUAAGA,0.0856 ± 0.019
6,UAGUGACUCACCUUCUCUGAGAGUAUAACA,0.077 ± 0.012
7,UAGUGAGUCACCUUCUGUGAGAGAUUAACA,0.609 ± 0.036
8,UAGACUGUCACCAUGUCUGAGAGAUUAACA,0.252 ± 0.025
9,UUCACUGUCCCCUUCUCUGAGAGAUUAACA,0.685 ± 0.048
10,UAGUCUGUCACCUUCUCUGAGAGUAAAACA,0.0972 ± 0.016
11,UUCACUGUCACCUUCUCUGACAGAUAUUGA,0.00372 ± 0.0035
12,UUCACUGUCUGCUUCUCUGAGAGAUUUUGA,0.0101 ± 0.0031
13,UAGACUGACACCUUCUCUGAGAGUUUAACA,0.324 ± 0.061
14,UAGACAGUCACCUUCUCUGAGAGUUUAACA,0.484 ± 0.087
15,UAGUGAGUCACCUUCUCUAAGAGAUUAACA,0.483 ± 0.02
16,UAGUGACUCACCUUGUCUGAGAGAUUAACA,0.135 ± 0.029
17,UUCACUGUCAGCUUCUCUGACAGAUUAACA,0.0541 ± 0.013
18,UAGACUGUCACCUUCUGUGUGAGAUUAACA,0.0954 ± 0.0065
19,AUCACUGUCACCUUCUCUCUCUCUAAUUGA [g13:g30:cont:t1A],0.0033 ± 0.0032
20,AUCACAGUCACCUUCUCUGAGAGAAUAACA,0.305 ± 0.047
21,UACAGUGUCACCUUCUCUGAGAGAUUAUCA,0.271 ± 0.048
22,UAGUCUGUCACCUUCUCUAGAGAUUAACA,0.177 ± 0.015
23,UAGUCUGUCACCUUCUCAGAGAGAUAAACA,0.147 ± 0.02
24,UAGUGACUCACCUUCUCUGAGAGAUUAAUA,0.233 ± 0.035

row,Sequence,pre-steady-state target cleavage rate
1,UACACUGUCACCUUGUCUGAGAGAUAAACA,0.229 ± 0.064
2,UAGACUGUGUCCUUCUCUGAGAGAUUAUGA,0.0121 ± 0.0036
3,UAGUGUGUGACCUUCUCUGACAGAUUAACA,0.159 ± 0.026
4,UAGACUGUCACCUUCUCUGACAGAUUAACA,0.219 ± 0.026
5,UAGUGUGUCUCCUUCUCUGAGUGAUUAACA,0.0227 ± 0.0032
6,UACACUCUCACCUUCUCUGAGUGAUUAACA,0.0216 ± 0.0064
7,UAGUGAGUCACCUUCUCUGAGAGAGUUAACA,0.496 ± 0.07
8,UAGUGUGUCACCUUCACUGAGUGAUUAACA,0.0215 ± 0.0055
9,UUCUGUGUCACCUUCUCUGAGAGAUUAACA,0.224 ± 0.022
10,UAGUGAGUCACCUUCUCUGAGAGAAAAUGA,0.0204 ± 0.0083
11,UAGUGACAGUGCUUCUCUGAGAGCUUAACA,0.00641 ± 0.0021
12,UAGUGACUCAGCUACUCUGAGAGAUUAACA,0.00544 ± 0.0018
13,AUCACUGUGACCUUCUCUGAGAGAUAUUGA,0.0262 ± 0.0078
14,UAGUGACAGACCUUCUCUGAGAGAUUUAACA,0.0486 ± 0.0092
15,AAGUCUGUCACCUUCUCUGAGAGAUUAAGA,0.183 ± 0.029
16,AUCACUGUCACCUUGUCUCAGAGAUUAACA,0.0456 ± 0.0043
17,UAGACUGUCACCAUCACUGAGAGAUUAACA,0.41 ± 0.024
18,UACACUGUCACCUGCUCUGAGAGAUUAACA,0.571 ± 0.03
19,UAGUCUGUCACGUUCUCUGAGAGAUUAUCA,0.176 ± 0.023
20,AUCAGUGUCACCAUCUCUGAGAGAUUAACA,0.715 ± 0.038
21,UAGUGACUCACGUUCUCUGAGAGAUUAUGA,0.00614 ± 0.003
22,UAGUGAGUCACCUUCACUGAGAGAAUAACA,0.0606 ± 0.0099
23,AUCACUGUCAGCUUCUCAGAGAGAUUAACA,0.294 ± 0.021
24,UAGUGUCUCACGUUCUCUGAGAGAUUAACA,0.485 ± 0.03
